{"sequences": {"note": "Sequences of proteins named here, by UniProt entry; tags and fusion partners are left off.", "UniProt Q13547": "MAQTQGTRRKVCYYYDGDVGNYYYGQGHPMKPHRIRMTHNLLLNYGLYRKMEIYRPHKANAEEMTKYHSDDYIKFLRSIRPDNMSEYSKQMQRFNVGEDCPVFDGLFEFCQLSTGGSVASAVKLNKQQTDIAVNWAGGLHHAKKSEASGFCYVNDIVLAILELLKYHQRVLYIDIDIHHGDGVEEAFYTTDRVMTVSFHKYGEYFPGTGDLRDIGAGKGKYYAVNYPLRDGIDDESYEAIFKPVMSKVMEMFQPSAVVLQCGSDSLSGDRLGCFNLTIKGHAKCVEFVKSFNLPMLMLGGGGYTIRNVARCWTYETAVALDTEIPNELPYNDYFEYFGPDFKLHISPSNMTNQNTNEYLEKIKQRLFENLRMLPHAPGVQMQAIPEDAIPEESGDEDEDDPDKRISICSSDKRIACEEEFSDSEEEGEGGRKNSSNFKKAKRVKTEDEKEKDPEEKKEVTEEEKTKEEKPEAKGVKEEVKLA"}, "source": "paper PMC3197607", "key": {"[1]": {"target": "T1, human Sin3B (human (endogenous in KB, HEK293, HCT116, H1299)) (UniProt O75182)", "T1 sequence": "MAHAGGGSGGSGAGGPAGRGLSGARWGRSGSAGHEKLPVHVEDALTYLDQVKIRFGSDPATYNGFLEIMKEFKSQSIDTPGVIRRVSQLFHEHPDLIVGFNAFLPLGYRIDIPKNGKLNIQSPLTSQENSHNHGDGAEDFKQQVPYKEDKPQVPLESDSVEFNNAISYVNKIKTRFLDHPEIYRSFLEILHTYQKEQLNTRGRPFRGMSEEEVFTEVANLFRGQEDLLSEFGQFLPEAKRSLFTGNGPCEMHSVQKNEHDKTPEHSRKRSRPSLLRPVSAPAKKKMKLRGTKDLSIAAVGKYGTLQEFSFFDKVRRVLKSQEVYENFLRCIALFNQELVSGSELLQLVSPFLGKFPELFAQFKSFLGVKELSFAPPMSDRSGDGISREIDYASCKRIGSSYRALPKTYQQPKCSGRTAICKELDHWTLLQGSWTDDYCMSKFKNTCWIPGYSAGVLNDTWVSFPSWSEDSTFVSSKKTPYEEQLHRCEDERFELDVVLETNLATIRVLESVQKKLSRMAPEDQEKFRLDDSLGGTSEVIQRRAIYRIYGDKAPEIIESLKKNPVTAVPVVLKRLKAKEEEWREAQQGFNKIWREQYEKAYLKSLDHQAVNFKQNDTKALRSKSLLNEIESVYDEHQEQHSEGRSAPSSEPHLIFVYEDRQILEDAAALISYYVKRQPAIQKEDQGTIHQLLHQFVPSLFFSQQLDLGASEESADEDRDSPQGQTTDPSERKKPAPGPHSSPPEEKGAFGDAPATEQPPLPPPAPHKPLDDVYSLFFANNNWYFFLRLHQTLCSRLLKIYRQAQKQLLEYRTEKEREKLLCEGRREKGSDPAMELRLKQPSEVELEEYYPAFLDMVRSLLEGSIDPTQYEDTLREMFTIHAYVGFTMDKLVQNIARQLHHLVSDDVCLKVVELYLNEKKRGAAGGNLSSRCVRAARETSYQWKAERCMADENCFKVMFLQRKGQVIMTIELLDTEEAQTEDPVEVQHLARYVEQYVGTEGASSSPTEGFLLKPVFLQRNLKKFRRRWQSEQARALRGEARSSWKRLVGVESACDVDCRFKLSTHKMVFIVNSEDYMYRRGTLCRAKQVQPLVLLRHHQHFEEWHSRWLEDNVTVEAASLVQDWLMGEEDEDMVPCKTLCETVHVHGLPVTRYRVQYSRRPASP", "test": "co-IP; endogenous proteins in NP-40 buffer lysates (20 mM Tris-HCl pH 7.4, 100 mM NaCl, 0.5 mM EDTA, 0.5% NP-40) of human cell lines (KB, HEK293, HCT116, H1299); 2 mg total protein with 1 µg antibody (anti-p53, anti-HDAC1 or anti-Sin3B), immunoblot of the partner; KB cells also after 1.0 µg/ml Adriamycin"}, "[2]": {"target": "T1, human Sin3B (human (endogenous in KB, HEK293, HCT116, H1299))", "test": "co-IP; reciprocal IP in KB cell extract with mouse anti-Sin3B (sc-13145), detection by anti-p53 (sc-98), ImmunoCruz IP/WB Optima E System"}, "Sin3B(168–399) (human)": {"target": "T2, Sin3B(168–399) (human) (UniProt O75182)", "T2 sequence": "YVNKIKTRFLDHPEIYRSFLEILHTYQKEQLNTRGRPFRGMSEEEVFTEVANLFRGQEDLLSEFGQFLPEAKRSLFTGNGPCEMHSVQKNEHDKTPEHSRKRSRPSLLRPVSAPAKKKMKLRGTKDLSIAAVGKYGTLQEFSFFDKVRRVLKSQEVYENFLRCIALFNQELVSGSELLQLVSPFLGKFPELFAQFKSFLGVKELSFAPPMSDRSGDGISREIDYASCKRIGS", "test": "two-hybrid; Matchmaker Two Hybrid System 3, yeast AH109; Sin3B fragments on GAL4 DNA binding domain (bait, pGBKT7), p53 on GAL4 activation domain (prey, pGADT7); growth and blue colonies on SD QDO-Xgal"}, "Sin3B(1–247) (human)": {"target": "T3, Sin3B(1–247) (human) (UniProt O75182)", "T3 sequence": "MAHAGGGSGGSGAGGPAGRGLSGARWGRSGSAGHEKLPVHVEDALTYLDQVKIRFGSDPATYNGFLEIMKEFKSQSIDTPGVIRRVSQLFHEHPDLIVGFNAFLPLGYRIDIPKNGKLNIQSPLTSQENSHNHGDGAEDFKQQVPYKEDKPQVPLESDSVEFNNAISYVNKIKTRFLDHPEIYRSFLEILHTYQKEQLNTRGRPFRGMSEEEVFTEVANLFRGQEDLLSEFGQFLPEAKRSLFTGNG", "test": "two-hybrid; Matchmaker Two Hybrid System 3, yeast AH109; Sin3B fragments on GAL4 DNA binding domain (bait, pGBKT7), p53 on GAL4 activation domain (prey, pGADT7); growth and blue colonies on SD QDO-Xgal"}, "[3]": {"target": "T4, pGBKT7-Sin3B(442–1162) (human) (UniProt O75182)", "T4 sequence": "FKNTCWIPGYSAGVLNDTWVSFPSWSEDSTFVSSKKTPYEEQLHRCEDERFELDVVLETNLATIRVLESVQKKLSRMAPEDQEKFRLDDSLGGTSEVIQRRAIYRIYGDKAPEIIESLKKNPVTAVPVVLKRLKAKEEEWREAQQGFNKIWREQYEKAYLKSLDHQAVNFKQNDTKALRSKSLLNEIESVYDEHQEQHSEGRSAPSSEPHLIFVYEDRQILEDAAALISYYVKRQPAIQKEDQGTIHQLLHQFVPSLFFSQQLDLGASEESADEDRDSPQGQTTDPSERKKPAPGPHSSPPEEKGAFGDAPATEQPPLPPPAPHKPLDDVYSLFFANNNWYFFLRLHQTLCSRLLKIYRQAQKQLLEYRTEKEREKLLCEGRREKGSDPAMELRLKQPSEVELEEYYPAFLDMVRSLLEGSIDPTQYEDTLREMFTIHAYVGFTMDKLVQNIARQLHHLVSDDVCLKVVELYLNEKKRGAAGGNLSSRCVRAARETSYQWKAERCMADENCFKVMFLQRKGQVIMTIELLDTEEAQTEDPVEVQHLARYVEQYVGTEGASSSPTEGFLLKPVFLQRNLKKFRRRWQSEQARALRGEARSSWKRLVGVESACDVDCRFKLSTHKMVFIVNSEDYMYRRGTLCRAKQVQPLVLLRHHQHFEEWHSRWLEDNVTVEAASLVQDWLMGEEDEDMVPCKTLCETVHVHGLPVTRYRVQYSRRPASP", "test": "two-hybrid; Matchmaker Two Hybrid System 3, yeast AH109; Sin3B fragments on GAL4 DNA binding domain (bait, pGBKT7), p53 on GAL4 activation domain (prey, pGADT7); growth and blue colonies on SD QDO-Xgal"}, "Sin3B(1–179) (human)": {"target": "T5, Sin3B(1–179) (human) (UniProt O75182)", "T5 sequence": "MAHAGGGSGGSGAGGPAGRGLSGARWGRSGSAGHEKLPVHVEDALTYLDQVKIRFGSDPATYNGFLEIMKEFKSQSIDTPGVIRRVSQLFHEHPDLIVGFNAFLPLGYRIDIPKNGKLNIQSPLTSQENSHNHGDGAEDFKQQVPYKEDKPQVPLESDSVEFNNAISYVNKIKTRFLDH", "test": "two-hybrid; Matchmaker Two Hybrid System 3, yeast AH109; Sin3B fragments on GAL4 DNA binding domain (bait, pGBKT7), p53 on GAL4 activation domain (prey, pGADT7); growth and blue colonies on SD QDO-Xgal"}, "[4]": {"target": "T6, pGBKT7-Sin3B(1–399) (human) (UniProt O75182)", "T6 sequence": "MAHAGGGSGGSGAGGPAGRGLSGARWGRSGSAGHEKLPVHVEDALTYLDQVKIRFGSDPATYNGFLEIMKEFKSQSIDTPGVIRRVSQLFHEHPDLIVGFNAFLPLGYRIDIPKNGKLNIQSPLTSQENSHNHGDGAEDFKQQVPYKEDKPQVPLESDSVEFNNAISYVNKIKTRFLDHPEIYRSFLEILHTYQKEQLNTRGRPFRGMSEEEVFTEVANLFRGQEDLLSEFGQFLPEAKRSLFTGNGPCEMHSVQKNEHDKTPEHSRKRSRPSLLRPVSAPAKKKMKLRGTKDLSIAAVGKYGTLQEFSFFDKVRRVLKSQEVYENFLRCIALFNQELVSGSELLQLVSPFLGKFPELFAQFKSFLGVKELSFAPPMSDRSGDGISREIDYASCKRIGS", "test": "two-hybrid; Matchmaker Two Hybrid System 3, yeast AH109; Sin3B fragments on GAL4 DNA binding domain (bait, pGBKT7), p53 on GAL4 activation domain (prey, pGADT7); growth and blue colonies on SD QDO-Xgal"}}, "note": "These are yes or no findings as the source states them, for the method shown. For some of these results: Binding seen in cells or lysates may run through a third protein. Some entries that bind do so weakly or less than the wild type.", "data": [{"substance": "HDAC1 (from UniProt Q13547 1-482)", "values": [{"measurement": "binding", "setting": "[1]", "result": "binds"}]}, {"substance": "human p53 (from UniProt P04637 1-393)", "values": [{"measurement": "binding", "setting": "[2]", "result": "binds"}]}, {"substance": "pGADT7-hp53 (full length human p53 fused with GAL4 activation domain) (from UniProt P04637 1-393)", "values": [{"measurement": "binding", "setting": "Sin3B(168–399) (human)", "result": "binds"}, {"measurement": "binding", "setting": "Sin3B(1–247) (human)", "result": "no binding"}, {"measurement": "binding", "setting": "[3]", "result": "no binding"}, {"measurement": "binding", "setting": "Sin3B(1–179) (human)", "result": "no binding"}]}, {"substance": "pGADT7-hp53(1–108) (from UniProt P04637 1-108) (domain or fragment)", "values": [{"measurement": "binding", "setting": "[4]", "result": "binds"}]}]}
